From the supplement of paper PMC8813932
Structures can show the parent of a compound that is named as a salt. ± gives the standard deviation of the averaged measurements. The list shows a part of the results. Many values rest on one well or one pass, so single values are uncertain.

How the values were obtained:
Test in all cases: log2 surviving fraction relative to plate median (drug vs vehicle, or drug+dl922-947 vs dl922-947 alone); ovarian cancer lines: OVCAR4 is platinum-sensitive while Ov4Cis resists cisplatin and Ov4Carbo carboplatin; higher = more cell survival
Conditions in all cases: compound concentration: 10 uM, 192 h
OVCAR4 = system: OVCAR4
Ov4Carbo = system: Ov4Carbo
Ov4Cis = system: Ov4Cis
[1] = dl922-947 oncolytic adenovirus co-treatment: MOI 10
[2] = dl922-947 oncolytic adenovirus co-treatment: none

Row | SMILES | log2 surviving fraction (OVCAR4; [1]) | log2 surviving fraction (OVCAR4; [2]) | log2 surviving fraction (Ov4Carbo; [1]) | log2 surviving fraction (Ov4Carbo; [2]) | log2 surviving fraction (Ov4Cis; [1]) | log2 surviving fraction (Ov4Cis; [2])
1 | CN1CCN(CCCN2c3ccccc3Sc3ccc(Cl)cc32)CC1 [Prochlorperazine Dimaleate] | -3.59 ± 1.3 | -2.63 ± 0.028 | -5.38 | -6.43 | -4.16 | -2.71
2 | Cc1cccc(C)c1OCC(=O)N[C@@H](Cc1ccccc1)[C@@H](O)C[C@H](Cc1ccccc1)NC(=O)[C@H](C(C)C)N1CCCNC1=O [Lopinavir (ABT-378)] | -0.464 ± 0.73 | -2.11 ± 1.6 | -0.211 | -4.46 | -1.46 | -4.4
3 | COc1cc2c(cc1OC)[C@@]13CCN4CC5=CCO[C@H]6CC(=O)N2[C@H]1[C@H]6[C@H]5C[C@H]43 [Brucine] | -0.00544 ± 1.1 | 0.581 ± 1.9 | 1.17 | 0.741 | -0.0962 | 0.263
4 | CN(C)C(=O)Oc1ccc[n+](C)c1 [Pyridostigmine Bromide (Mestinon)] | -0.206 ± 0.32 | 0.133 ± 0.67 | 0.0516 | 1.13 | -0.0375 | -0.465
5 | CCC(C)(C)C(=O)O[C@H]1C[C@@H](C)C=C2C=C[C@H](C)[C@H](CC[C@@H]3C[C@@H](O)CC(=O)O3)[C@H]21 [Simvastatin (Zocor)] | -0.55 ± 0.9 | -3.16 ± 0.088 | -1.9 | -6.69 | -1.87 | -2.25
6 | NC(=O)c1ncn([C@@H]2O[C@H](CO)[C@@H](O)[C@H]2O)c1O [Mizoribine (Bredinin)] | -0.329 ± 0.17 | 0.473 ± 0.23 | -0.245 | 0.38 | -0.0111 | -0.703
7 | CCOC(=O)C1=C(C)NC(C)=C(C(=O)OCC)C1c1ccccc1/C=C/C(=O)OC(C)(C)C [Lacidipine (Lacipil, Motens)] | -0.448 ± 0.21 | -0.286 ± 0.47 | 0.612 | 0.0664 | -0.562 | -0.632
8 | O=C(CCNNC(=O)c1ccncc1)NCc1ccccc1 [Nialamide] | 0.669 ± 0.51 | 0.316 ± 0.12 | -1.15 | -1.12 | -0.124 | 0.0682
9 | COc1ccccc1N1CCN(CC(O)COc2cccc3ccccc23)CC1 (stereo not drawn) [Naftopidil (Flivas)] | -0.198 ± 0.0029 | -0.727 ± 0.18 | 0.127 | -0.832 | -0.704 | -1.54
10 | Cc1cc2nc3c(=O)[nH]c(=O)nc-3n(C[C@H](O)[C@H](O)[C@H](O)CO)c2cc1C [Riboflavin (Vitamin B2)] | -0.081 ± 0.82 | 0.0761 ± 0.22 | 1.13 | 0.122 | -0.222 | -0.438
11 | Clc1ccc(COC(Cn2ccnc2)c2ccc(Cl)cc2Cl)c(Cl)c1 (stereo not drawn) [Miconazole nitrate] | -0.928 ± 0.097 | -1.76 ± 0.84 | -1.26 | -2.57 | -1.85 | -0.579
12 | Nc1nc(N)nc(-c2cc(Cl)ccc2Cl)n1 [Irsogladine] | 1.05 ± 0.64 | 0.825 ± 0.43 | 0.775 | -3.2 | 1.15 | 1.47
13 | c1ccc2nc(N3CCNCC3)ccc2c1 [Quipazine Maleate] | 0.369 ± 0.53 | -0.227 ± 0.89 | 0.234 | -1.11 | 0.664 | 0.188
14 | CN(C)CCC[C@@]1(c2ccc(F)cc2)OCc2cc(C#N)ccc21 [Escitalopram oxalate] | -0.223 ± 0.052 | -0.237 ± 0.78 | -0.519 | -0.982 | -0.302 | 0.884
15 | Cc1ccc(N(CC2=NCCN2)c2cccc(O)c2)cc1 [Phentolamine mesilate] | 0.588 ± 0.77 | 0.397 ± 0.64 | 0.147 | 0.459 | 0.283 | 0.467
16 | COc1cc(Nc2c(C#N)cnc3cc(OCCCN4CCN(C)CC4)c(OC)cc23)c(Cl)cc1Cl [Bosutinib (SKI-606)] | -0.783 ± 1.6 | -1.15 ± 9 | 0.779 | -13.9 | -6.99 | -3.15
17 | NCCS [Cysteamine HCl] | -0.462 ± 0.38 | 0.354 ± 0.35 | -0.055 | 0.0185 | -0.317 | 0.295
18 | N.N.[Cl][Pt][Cl] [Cisplatin] | 0.413 ± 0.19 | 1.42 ± 0.33 | 0.772 | 2.11 | 1.1 | 1.34
19 | OC(CCN1CCCCC1)(c1ccccc1)C1CC2C=CC1C2 (stereo not drawn) [Biperiden HCl] | 0.159 ± 0.52 | -1.63 ± 1 | 0.434 | 0.851 | -0.863 | 0.0818

Row | SMILES | log2 surviving fraction (OVCAR4; [1]) | log2 surviving fraction (OVCAR4; [2]) | log2 surviving fraction (Ov4Carbo; [1]) | log2 surviving fraction (Ov4Carbo; [2]) | log2 surviving fraction (Ov4Cis; [1]) | log2 surviving fraction (Ov4Cis; [2])
20 | O=NO [Sodium nitrite] | -0.845 ± 0.69 | -0.261 ± 0.2 | 0.593 | -0.513 | -0.173 | -0.209
21 | CS(=O)(=O)OCCCCOS(C)(=O)=O [Busulfan (Myleran, Busulfex)] | 0.315 ± 0.26 | 0.451 ± 0.25 | -0.613 | -0.28 | 0.323 | 0.0815
22 | CC1(C)Cc2c(-c3ccccc3)c(-c3ccc(Cl)cc3)c(CC(=O)O)n2C1 [Licofelone] | 0.541 ± 0.48 | -0.0175 ± 0.17 | 0.514 | -3.07 | 0.763 | 0.0779
23 | c1cc(CN2CCCNCCNCCCNCC2)ccc1CN1CCCNCCNCCCNCC1 [Plerixafor (AMD3100)] | 0.707 ± 0.81 | -0.0791 ± 1.1 | 0.494 | -0.219 | 0.345 | -0.14
24 | Cc1c(-c2ccccc2)oc2c(C(=O)OCCN3CCCCC3)cccc2c1=O [Flavoxate HCl] | 0.906 ± 0.7 | 0.954 ± 0.49 | -0.492 | 1.83 | 0.547 | -0.0866
25 | CC#CCn1c(N2CCC[C@@H](N)C2)nc2c1c(=O)n(Cc1nc(C)c3ccccc3n1)c(=O)n2C [Linagliptin (BI-1356)] | -1.17 ± 0.4 | -0.706 ± 1.3 | 0.635 | 0.792 | -0.887 | -1.42
26 | CCN(CC)CCOC(=O)c1ccc(N)cc1 [Procaine (Novocaine) HCl] | 0.566 ± 0.46 | 0.586 ± 0.45 | 0.222 | 1.82 | -0.722 | -0.0196
27 | CCCCCCCCCCCCCCCC[N+](C)(C)C [Cetrimonium Bromide] | -8.61 ± 0.38 | -7.28 ± 11 | -7.5 | -10.5 | -8.77 | -13.2
28 | c1cnc2cc3c(cc2n1)[C@@H]1CNC[C@H]3C1 [Varenicline tartrate] | 0.49 ± 0.69 | 0.487 ± 0.18 | -0.524 | 1.16 | -0.21 | 0.549
29 | CN(C)c1nc(N(C)C)nc(N(C)C)n1 [Altretamine (Hexalen)] | -0.189 ± 0.28 | -0.919 ± 0.91 | -0.00391 | 1.31 | -0.612 | 0.311
30 | NC12CC3CC(CC(C3)C1)C2 [Amantadine hydrochloride (Symmetrel)] | 1.03 ± 0.7 | 1.26 ± 0.34 | 0.73 | 0.946 | 1.28 | 1.03
31 | CCCC(CCC)C(=O)O [Divalproex sodium] | 0.174 ± 0.45 | -0.462 ± 0.73 | 0.269 | -0.0115 | 0.222 | -0.0517
32 | O=S(=O)(O)Oc1ccc(C(c2ccc(OS(=O)(=O)O)cc2)c2ccccn2)cc1 [Sodium Picosulfate] | 0.84 ± 0.22 | 0.747 ± 0.74 | -0.0519 | 1.76 | -0.153 | 0.834
33 | CC(C)N(CCC(C(N)=O)(c1ccccc1)c1ccccn1)C(C)C (stereo not drawn) [Disopyramide Phosphate] | 0.471 ± 0.1 | 0.257 ± 0.56 | 0.53 | -0.149 | 0.366 | 0.439
34 | C[C@@](Cc1ccc(O)c(O)c1)(NN)C(=O)O [Carbidopa] | -0.294 ± 0.32 | -0.3 ± 0.16 | -0.267 | -1.41 | -0.186 | -0.233
35 | COc1ccc([C@H]2CNC(=O)C2)cc1OC1CCCC1 [S-(+)-Rolipram] | -0.694 ± 0.94 | -0.624 ± 0.25 | 0.477 | -0.252 | -0.628 | -0.968
36 | CCCC(=O)[O-].[Na+] [Sodium butyrate] | -0.0391 ± 0.65 | 0.294 ± 0.23 | 0.706 | -0.349 | 0.0955 | -0.298
37 | CN1[C@@H]2CC[C@H]1C[C@@H](OC(=O)c1c[nH]c3ccccc13)C2 [Tropisetron] | -0.29 ± 0.23 | -0.707 ± 0.97 | 0.753 | -0.308 | -0.307 | -0.0518
38 | CCOC(=O)C1=C(COCCN)NC(C)=C(C(=O)OC)C1c1ccccc1Cl (stereo not drawn) [Amlodipine (Norvasc)] | -2.71 ± 0.87 | -2.51 ± 0.37 | -1.83 | -0.981 | -5.23 | -6.59
